The other results are listed elsewhere or left out.

The experiment has as its system T1, C. trachomatis L2/434/Bu expressing GFP (CTL2-GFP).
T1 construct: L2/434/Bu GFP intracellular growth in HeLa cells
Details: species or system HeLa; C. trachomatis total inclusion area by high-content imaging, normalised to DMSO. As to conditions: total inclusion area; 28.5 h, 10 µM; inhibitor. The gist of the method:
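Following bulk GFP and resorufin fluorescence reads, infected cells were fixed, Hoechst-stained and imaged on a high-content platform. Inclusion total area and number per well served as growth proxies; nuclei counts indicated host viability. MICs were derived as for the fluorescence assay.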
Consider `COc1cccc2ncn(CCc3csc(N)n3)c(=O)c12` [CBK307679], for which the “% of control remaining” value was determined as 40.3105.
`O=C(CSCCOc1ccc(Br)cc1)Nc1ccc2c(c1)OCCO2` [CBK296714]: the “% of control remaining” value was 99.5458.
`COc1ccc(-n2nc3cc(C)c(NC(=S)NC(=O)c4oc5ccccc5c4C)cc3n2)cc1` [CBK264188]: the “% of control remaining” value came to 101.614.
Regarding `Cc1cc(C(=O)Oc2cccc(NC3=NS(=O)(=O)c4ccccc43)c2)c2ccccc2n1` [CBK265302], the “% of control remaining” value turned out to be 107.418.
As to `Clc1ccc(OCCCn2ccnc2)c(CN2CCSCC2)c1` [CBK307194], the “% of control remaining” value turned out to be 65.7927.
With `CC(C)(C)OC(=O)N1CCC(NC(=O)c2ccc(-c3ccc(S(C)(=O)=O)cc3)cn2)CC1` [CBK174352] the figure was 119.737.
Regarding `Cc1ccc2nc(N(CCCN(C)C)C(=O)c3ccco3)sc2c1` [CBK287639], the “% of control remaining” value turned out to be 100.469.
For `CCOc1cccc(-c2ccc(N(C)CCN(C)C)nc2)c1` [CBK036904], the “% of control remaining” value is given as 118.447.
In the case of `CCOC(=O)c1cnn(C2CCCN(Cc3ccc(C#N)o3)C2)c1` (stereo not drawn) [CBK304045], the “% of control remaining” value was found to be 50.4746.
For the compound `OC1CCC(Nc2cncc(-c3ccc4ccccc4c3)n2)CC1` (stereo not drawn) [CBK065463], the “% of control remaining” value was 88.1968.
The figure for `NC(=S)N1N=C2CCCCC2C1c1ccccc1` (stereo not drawn) [CBK288371] is 64.5465; for `CCn1nc(C)c(CNC(=O)N(Cc2ccccn2)CC(C)C)c1C` [CBK304193] it is 34.3054.
Regarding `CCn1c(CN2CCCC2c2nc(N(C)C)ncc2-c2cccc(F)c2)nc2ccccc21` (stereo not drawn) [CBK286500], the “% of control remaining” value stood at 67.8141.
For `COc1ccccc1C1OC(=O)CC1C(=O)N1CCN(c2ccc(Cl)cc2)CC1` (stereo not drawn) [CBK091332], the “% of control remaining” value turned out to be 104.405.
Consider `CCOc1ccc(-c2ccnc(N[C@H]3CC[C@@H](N)CC3)n2)cc1C(=O)O` [CBK307104], for which the “% of control remaining” value was determined as 69.2184.
`Cc1ccc(C#N)c(NS(=O)(=O)c2cc(C)c(Cl)cc2C)c1` [CBK045250]: the “% of control remaining” value is reported as 67.3691.
In the case of `COc1cc(CN2CCN(Cc3ccccc3F)CC2)cc(OC)c1O` [CBK264219], the “% of control remaining” value is listed as 126.184.
For `CN(CCOC(=O)c1cccs1)C(C)(C)C` [CBK027559C], the “% of control remaining” value worked out at 105.525.
As for `CC1CCc2c(sc(NC(=O)CCN3C(=O)c4ccccc4C3=O)c2C(N)=O)C1` (stereo not drawn) [CBK263667], the “% of control remaining” value is on record as 79.5797.
With `O=C(Cn1nnc2ccccc21)Nc1ccc(Cl)cn1` [CBK296068] the figure was 61.9979; with `CC(NC(=O)c1cc2ccccc2c(=O)[nH]1)c1ccc(-c2ccccc2)cc1` (stereo not drawn) [CBK297936], 55.8701; with `CS(=O)(=O)c1ccc(-c2ccc(C(=O)N3CCN(Cc4ccc(F)c(F)c4)CC3)nc2)cc1` [CBK160485], 81.2548.
With `CC[C@H]1CN(C(=O)c2cccnc2)CC[C@H]1CC(=O)NCc1ccc(F)cc1` [CBK289143] the figure was 88.1195.
With `O=S(=O)(NCCc1cccs1)c1cc2c(N3CCNCC3)nccc2s1` [CBK041299C], the “% of control remaining” value is 82.3521.
For the compound `Cc1cc(CNC(=O)c2cc3ccc(Cl)cc3[nH]2)[nH]n1` [CBK281391], the “% of control remaining” value stood at 108.853.
Take `COc1nccnc1OC1CCN(CCc2ccccc2)CC1` [CBK084258]: the “% of control remaining” value is recorded as 98.8686.
With `CCc1nc2ccc(C(=O)N(C)Cc3ccco3)cn2c1N(C)C(=O)c1ccncc1` [CBK145479], the “% of control remaining” value worked out at 86.9948.
On to `CSc1nnc2c(n1)OC(/C=C/c1ccccc1)N(C(C)=O)c1ccccc1-2` (stereo not drawn) [CBK264453], for which the “% of control remaining” value stood at 108.048.
Take `Cc1ccc(Oc2ccc(NC(=O)Cn3cnnc3C#N)cc2)cc1` [CBK295612]: the “% of control remaining” value is 102.008.
On to `CC(=O)c1cccc(NC(=O)c2cc(S(=O)(=O)N(C)C)ccc2Cl)c1` [CBK265732], for which the “% of control remaining” value worked out at 87.1329.
On to `Cc1ccc(-n2ncc3c(=O)n(Cc4ccccc4C)cnc32)c(C)c1` [CBK287695], for which the “% of control remaining” value turned out to be 86.3507.
On to `CC(C)(C)OC(=O)N1CCC[C@]2(CCC(=O)N2)[C@H]1c1ccc(F)cc1` [CBK283462], for which the “% of control remaining” value was determined as 82.8749.
Regarding `O=[N+]([O-])c1cccc(-c2nc(-c3ccccc3)c(-c3ccc4oc5ccc(-c6[nH]c(-c7cccc([N+](=O)[O-])c7)nc6-c6ccccc6)cc5c4c3)[nH]2)c1` [CBK261433], the “% of control remaining” value amounted to 104.634.
As to `O=C(O)c1[nH]c2ccccc2c1C(c1c(F)cccc1Cl)c1c(C(=O)O)[nH]c2ccccc12` [CBK267797], the “% of control remaining” value turned out to be 103.329.
As to `CCNc1nc(-c2ccc(S(C)(=O)=O)cc2)cn2ccnc12` [CBK066452], the “% of control remaining” value is recorded as 105.216.
With `CCCn1cnc2cc(NC(=O)C3CCN(S(=O)(=O)c4ccc(F)cc4)C3)ccc21` (stereo not drawn) [CBK285704] the figure was 90.2045; with `Nc1ccccc1-c1ccccc1NC(=O)C(=O)O` [CBK266824], 93.2467.
With `COC(=O)[C@H]1CN(C(=O)CN2CCCC2=O)C[C@@H]1c1ccc(F)cc1` [CBK283507] the figure was 100.704.
The figure for `O=C(CCCn1c(=O)[nH]c2ccsc2c1=O)Nc1ccc(F)cc1` [CBK287769] is 95.7144; for `CC(C)(C)c1ccc(S(=O)(=O)N2CCC3(CC2)OCCO3)cc1` [CBK038429] it is 60.5601.
For the compound `Cc1cc(=[N+]2CCCCC2)cc(C)o1` [CBK022824I], the “% of control remaining” value was 83.4338.
Turning to `CNc1nc(N(C)C)nc(-n2cnc(SCCOc3ccccc3C)n2)n1` [CBK288564], the “% of control remaining” value was determined as 77.1098.
With `FC(F)(F)c1cccc(-n2cc(-c3cccnc3)nn2)c1` [CBK113053] the figure was 81.5499.
With `CC(=O)Nc1cccc(NS(=O)(=O)c2ccc(N3CCNCC3)c3ccccc23)c1` [CBK028702C], the “% of control remaining” value is listed as 90.7148.
As to `Cc1sc(NC(=O)c2ccccc2)c(C(Nc2ccccn2)c2ccc(F)cc2)c1C` (stereo not drawn) [CBK296957], the “% of control remaining” value was determined as 77.233.
Consider `O=C(CN1CCCCC1)Nc1ccc(NC(=O)CN2CCCCC2)cc1` [CBK265421], for which the “% of control remaining” value is 104.493.
`CC(C)(C)c1cn(C[C@H]2CC3CCN2C[C@@H]3C(=O)N2CCOCC2)nn1` (stereo partly drawn) [CBK288735]: the “% of control remaining” value was 95.4196.
As to `Cc1csc(NC(=O)c2c(C)c(C)n[nH]c2=O)n1` [CBK297759], the “% of control remaining” value came out at 108.036.
In the case of `COc1cccc(NC(=O)CCn2ncc(Cl)c2C)c1` [CBK288012], the “% of control remaining” value is listed as 59.5855.
On to `COc1ccc(-c2noc(COc3cccc(C(=O)O)c3)n2)c(OC)c1` [CBK298279], for which the “% of control remaining” value was determined as 98.2192.
Take `Cc1csc(C2CN(Cc3ccn(C)c(=O)c3)CCO2)n1` (stereo not drawn) [CBK305763]: the “% of control remaining” value amounted to 71.8445.
The figure for `O=C(O)c1ccccc1SC1CC(=O)N(CCc2ccccc2)C1=O` (stereo not drawn) [CBK269321] is 81.9983; for `COc1ccc(S(=O)(=O)NC(C)C(=O)NCc2cccnc2)cc1Cl` (stereo not drawn) [CBK269384] it is 114.528.
The figure for `Cc1cnc(NCC2(CO)CCOCC2)nc1N(C)C` [CBK307026] is 51.4367.
As to `C=CCN1CCC(C(=O)NC(C)c2ccc(OC)c(OC)c2)CC1` (stereo not drawn) [CBK148924], the “% of control remaining” value amounted to 90.9913.
Regarding `Cc1ccc(Oc2ccc(C(F)(F)F)cc2[N+](=O)[O-])c(Br)c1` [CBK002817], the “% of control remaining” value is listed as 115.883.
Consider `COc1ccc(NC(=O)c2ccc3c(c2)C(=O)N(Cc2ccncc2)C3=O)cc1` [CBK269660], for which the “% of control remaining” value worked out at 101.592.
As to `Cc1ncccc1COC(=O)Nc1cnc2ccccc2c1` [CBK200128], the “% of control remaining” value is 70.2233.
With `Cc1ccc(NC(C(N)=O)c2c(C)[nH]c(=O)[nH]c2=O)cc1` (stereo not drawn) [CBK111355] the figure was 103.358; with `CC1=CCC2C(=O)N(c3ccccc3)C(=O)C2C1` (stereo not drawn) [CBK086490], 97.4147; with `CCc1onc(C)c1C(=O)N1CCN(C2CCNC2)CC1` (stereo not drawn) [CBK304258], 52.2686.
On to `C=C(C)Cn1c(SCC(C)C)nnc1-c1ccc(O)nc1` [CBK200094], for which the “% of control remaining” value turned out to be 77.9356.
With `O=C(Cc1ccc(-c2ccccc2)cc1)NCc1cccnc1` [CBK262591] the figure was 94.3414; with `Cc1cc(C[C@@H]2COC[C@H]2NCC(C)c2ccccc2)on1` (stereo partly drawn) [CBK285145], 73.7714; with `COC(=O)[C@@H](C)NC(=O)[C@@H]1CN(C(=O)NC(C)C)CCN1C(=O)C1CCCCC1` [CBK289622], 110.689.
As to `COc1ccc(OC)c(C(C)NC(=O)C2CCN(Cc3cccc(C(F)(F)F)c3)CC2)c1` (stereo not drawn) [CBK148764], the “% of control remaining” value was determined as 87.0003.
The figure for `CCOc1cccc(-c2cn3ccnc3c(Nc3ccc(Cl)cc3)n2)c1` [CBK066505] is 105.542.
On to `COc1ccc(NC(=O)Cn2cnc3c2c(=O)n(C)c(=O)n3C)cc1Cl` [CBK134216], for which the “% of control remaining” value came out at 98.4694.
Take `CSCCOc1cc(NC(C)C)ncn1` [CBK115889]: the “% of control remaining” value came to 80.0637.
Take `CC(=O)Nc1ccc(NCc2ncc(C(C)(C)C)o2)c(Cl)c1` [CBK306135]: the “% of control remaining” value was determined as 85.0657.
Turning to `Cc1cc(C)nc(SCC(=O)N2c3ccccc3C(C)(c3ccc(Cl)cc3)CC2(C)C)n1` (stereo not drawn) [CBK073872], the “% of control remaining” value is on record as 58.1353.
As to `CC(Cn1cncn1)C(=O)N1CCCCC1CCc1ccccc1` (stereo not drawn) [CBK282265], the “% of control remaining” value is 69.918.
With `Cc1[nH]c2cccc(C(=O)N3CCOC(C)(C(=O)NC4CCCC4)C3)c2c1C` (stereo not drawn) [CBK285800] the figure was 131.842; with `O=c1c(-c2ccccc2)c(O)cc(-c2ccccc2)n1Cc1ccccc1` [CBK291188], 101.075.
`COc1cnc(-c2cc(Cl)cc(Cl)c2)c(NC(=O)c2ccsc2)n1` [CBK145340]: the “% of control remaining” value is 115.172.
On to `Cc1cccc(-c2csc3c(=O)[nH]c(N4CCC(C(=O)NCc5ccncc5)CC4)nc23)c1` [CBK215625], for which the “% of control remaining” value is reported as 86.7115.
Take `Cc1c(CC(=O)O)c2c(n1Cc1ccc(F)cc1)CCCC2=O` [CBK287078]: the “% of control remaining” value is 107.126.
On to `O=C(O)C[C@@H]1CCN(C(=O)C2CCCCC2)C[C@@H]1CCN1CCCCC1` [CBK288781], for which the “% of control remaining” value is 104.972.

The record behind these values is PMC12040169 (PLOS Biology, 2025).
